# Measured values as given in the supplement of paper PMC8007513.
# Structures can show the parent of a compound that is named as a salt. ± gives the standard error. Hit rate of the full screen: of about 1,300 compounds, about 75 (6%) showed an effect of 50% or more. The list shows a part of the results.
# Tested on: Trichoderma virens ATCC 9645
# Assay: growth yield (OD600) relative to untreated control; higher = less growth inhibition
# Conditions: compound concentration: 100 uM
# Summary of the method: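 Plates were read for OD600 at 40 h and 72 h after Trichoderma virens ATCC 9645 spores (15,000 spores ml^−1 in potato dextrose broth) were grown at 30 °C with library compounds at 100 μM final, with or without a biocide at 200 ng ml^−1. Growth is stated relative to the control with neither agent, as the mean of duplicate screens.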
Structure (SMILES),growth yield (40 h),growth yield (72 h)
CCN(CC)CC#CCOC(=O)C(O)(c1ccccc1)C1CCCCC1 (stereo unspecified) [Oxybutynin chloride],95.94 ± 0.32%,99.84 ± 0.84%
COc1ccc(C(=O)NCc2cccnc2)cc1C(=O)NCc1cccnc1 [Picotamide monohydrate],104 ± 1.8%,105 ± 2.3%
Cc1ccc(C(=O)c2cc(O)c(O)c([N+](=O)[O-])c2)cc1 [Tolcapone],51.3 ± 8.1%,58.8 ± 11%
NC[C@H]1O[C@H](O[C@H]2[C@H](O[C@@H]3O[C@H](CO)[C@@H](O)[C@H]3O)[C@@H](O)[C@H](N)C[C@@H]2N)[C@H](N)[C@@H](O)[C@@H]1O [Ribostamycin sulfate salt],106 ± 2.1%,99.2 ± 1.9%
COc1ccc2[nH]cc(CCNC(C)=O)c2c1 [Melatonin],101%,97.3%
CCn1cc(C(=O)O)c(=O)c2cnc(N3CCNCC3)nc21 [Pipemidic acid],94.4 ± 3.5%,92.7%
CCCCS(=O)(=O)N[C@@H](Cc1ccc(OCCCCC2CCNCC2)cc1)C(=O)O [Tirofiban hydrochloride],102 ± 2.5%,103 ± 2.6%
COc1cc2nc(N3CCN(C(=O)c4ccco4)CC3)nc(N)c2cc1OC [Prazosin hydrochloride],105 ± 5.7%,101 ± 1.4%
COc1nc(C)nc(Cl)c1NC1=NCCN1 [Moxonidine],103.9 ± 0.95%,102 ± 1.5%
Cc1ccc(S(=O)(=O)NC(=O)NN2CC3CCCC3C2)cc1 (stereo unspecified) [Gliclazide],104.8 ± 0.32%,106 ± 2.4%
CC(=O)N[C@@H](CC(=O)N[C@@H](CCC(=O)O)C(=O)O)C(=O)O [Spaglumic acid],101 ± 3.5%,99.5 ± 1.4%
C#CCN(C)Cc1ccccc1 [Pargyline hydrochloride],105 ± 2.1%,107 ± 2.9%
COc1ccc2cc(CCC(C)=O)ccc2c1 [Nabumetone],52.7 ± 5.1%,61.5 ± 2.9%
CCn1cc(C(=O)O)c(=O)c2ccc(C)nc21 [Nalidixic acid sodium salt],84.82 ± 0.32%,104 ± 2.3%
CCN(CC)CCNC(=O)c1cc(S(C)(=O)=O)ccc1OC [Tiapride hydrochloride],104 ± 4.8%,104 ± 4.7%
O=C(CCCN1CC=C(n2c(=O)[nH]c3ccccc32)CC1)c1ccc(F)cc1 [Droperidol],104 ± 3%,108 ± 1.8%
CO[C@H]1/C=C/O[C@@]2(C)Oc3c(C)c(O)c4c(c3C2=O)C2=NC3(CCN(CC(C)C)CC3)NC2=C(NC(=O)/C(C)=C\C=C\[C@H](C)[C@H](O)[C@@H](C)[C@@H](O)[C@@H](C)[C@H](OC(C)=O)[C@@H]1C)C4=O [Rifabutin],106 ± 4.3%,103.1 ± 0.94%

Structure (SMILES),growth yield (40 h),growth yield (72 h)
O=C(Cn1ccnc1[N+](=O)[O-])NCCO [Etanidazole],101 ± 2.2%,98 ± 1.9%
CN(C)CCN(Cc1cccs1)c1ccccn1 [Methapyrilene hydrochloride],97.4 ± 1.1%,100 ± 2.9%
COc1c(O[C@@H]2O[C@H](CO)[C@@H](O)[C@H](O)[C@H]2O)cc2c(c1OC)-c1ccc(SC)c(=O)cc1[C@@H](NC(C)=O)CC2 [Thiocolchicoside],101 ± 1.4%,103 ± 2.2%
Clc1ccc(C(Cn2ccnc2)OCc2c(Cl)cccc2Cl)c(Cl)c1 (stereo unspecified) [Isoconazole],2.06 ± 1.4%,1.68 ± 1.1%
NC(=O)N1c2ccccc2C=Cc2ccccc21 [Carbamazepine],102 ± 1.6%,99.21 ± 0.42%
Nc1nc(F)nc2c1ncn2[C@@H]1O[C@H](CO)[C@@H](O)[C@@H]1O [Fludarabine],96.9 ± 4.8%,95 ± 1.5%
CC[C@H]1OC(=O)[C@H](C)[C@@H](O[C@H]2C[C@@](C)(OC)[C@@H](O)[C@H](C)O2)[C@H](C)[C@@H](O[C@@H]2O[C@H](C)C[C@H](N(C)C)[C@H]2O)[C@](C)(O)C[C@@H](C)/C(=N\OCOCCOC)[C@H](C)[C@@H](O)[C@]1(C)O [Roxithromycin],97.85 ± 0.64%,96.7 ± 1.5%
CC(=O)N[C@@H](CC(C)C)C(=O)O [N-Acetyl-L-leucine],103 ± 3%,103 ± 2.7%
Nc1nc(=O)c2nc(CNc3ccc(C(=O)N[C@@H](CCC(=O)O)C(=O)O)cc3)cnc2[nH]1 [Folic acid],102 ± 1.4%,104.7 ± 0.42%
CC(C)C(=O)OCC(=O)[C@@]12O[C@H](C3CCCCC3)O[C@@H]1C[C@H]1[C@@H]3CCC4=CC(=O)C=C[C@]4(C)[C@H]3[C@@H](O)C[C@@]12C [Ciclesonide],100 ± 3.3%,98.48 ± 0.32%
O=C1CN2Cc3c(ccc(Cl)c3Cl)N=C2N1 [Anagrelide],98.2 ± 7.9%,96.7 ± 7.3%
CC(C)NCC(O)COc1ccc(COCCOC(C)C)cc1 (stereo unspecified) [Bisoprolol fumarate],104 ± 2.1%,104 ± 1.4%
Nc1nc(=S)c2ncn([C@@H]3O[C@H](CO)[C@@H](O)[C@H]3O)c2[nH]1 [Thioguanosine],86.2 ± 5.6%,97 ± 1.6%
NCCCC[C@H](N[C@@H](CCc1ccccc1)C(=O)O)C(=O)N1CCC[C@H]1C(=O)O [Lisinopril],97.53 ± 0.95%,101 ± 1.3%
CC(C)(C)NC[C@H](O)COc1nsnc1N1CCOCC1 [Timolol maleate salt],100.7 ± 0.32%,97.3 ± 2.5%
O=C(Nc1cccc2c(=O)cc(-c3nnn[nH]3)oc12)c1ccc(OCCCCc2ccccc2)cc1 [Pranlukast],98.5 ± 6%,95.8 ± 3.7%
